From a collection of fitness landscapes (doi:10.1016/j.celrep.2020.107928)
Whole data set: some 81,000 sequences, median “one-hybrid fitness for binding NBS DNA” near -0.1, cut for the highest 2% near 0.36. The list shows a part of the results.

B1: Caulobacter ParB omega fusion; a variant is named by its letters at X, in order, B8GW30 (parent)
chain: MESVVVGEPGMSEGRRGLGRGLSALLGEVDAAPAQAPGEQLGGSREAPIEILQRNPDQPRRTFREEDLEDLSNSIREKGVLQPILVRPSPDTAGEYQIVAGERAWRAAQRAGLKTVPIMVRELDDLAVLEIGIIENVQRADLNVLEEALSYKVLMEKFERTQENIAQTIGKSXSHVANXMRLLXLPDEVQSYLVSGELTAXHARAIAAAADPVALAKQIIEGGLSVRETEALARKAPNLSAGKSKGGRPPRVKDTDTQALESDLSSVLGLDVSIDHRGSTGTLTITYATLEQLDDLCNRLTRGI

Variants of: B1
Test: one-hybrid fitness for binding NBS DNA (the Noc-binding site; scaled: cognate 1, non-cognate 0); higher = stronger binding
Conditions: with NBS DNA site
Outline: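 Selection: bacterial one-hybrid in E. coli USO, HIS3 reporter with the site 19 bp from the promoter, 48 hours at 37°C on M9-minus-histidine plus 0.1 mM IPTG and 5 mM 3-AT. Libraries were Caulobacter ParB with four randomised specificity codons, sequenced on Illumina before and after selection. Fitness is the rescaled log change in variant-to-wild-type read ratio, anchored to the cognate and non-cognate sites.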

Variant | one-hybrid fitness for binding NBS DNA
SFAT | ≤ 0.2
SRKQ | ≤ 0.2
SQQA | ≤ 0.2
RQMA | ≤ 0.2
HGLM | ≤ 0.2
RETH | ≤ 0.2
YMEF | ≤ 0.2
DYIS | ≤ 0.2
IKRT | ≤ 0.2
ELFG | ≤ 0.2
VELC | ≤ 0.2
KFYT | ≤ 0.2
QTPT | 0.418
NMPE | ≤ 0.2
NYPD | ≤ 0.2
CGAY | ≤ 0.2
MATR | ≤ 0.2
PYPI | ≤ 0.2
QDPE | ≤ 0.2
MGVN | ≤ 0.2
VLSG | ≤ 0.2
IIPC | ≤ 0.2
LHEK | ≤ 0.2
DDDP | ≤ 0.2
QNRV | ≤ 0.2

Variant | one-hybrid fitness for binding NBS DNA
LCLM | ≤ 0.2
SQIW | ≤ 0.2
SRVL | ≤ 0.2
DAPS | ≤ 0.2
KPIS | ≤ 0.2
TEHC | ≤ 0.2
QRKV | 0.588
NHQT | ≤ 0.2
TVIG | ≤ 0.2
RNWQ | ≤ 0.2
KSIV | ≤ 0.2
KRCL | ≤ 0.2
PVGT | ≤ 0.2
SRDI | ≤ 0.2
VDAS | ≤ 0.2
LVAY | ≤ 0.2
KHMG | ≤ 0.2
WDMT | ≤ 0.2
PHKA | ≤ 0.2
LCRV | ≤ 0.2
LDHC | ≤ 0.2
QPHF | ≤ 0.2
PKID | ≤ 0.2
CMNC | ≤ 0.2
GSVQ | ≤ 0.2

Variant | one-hybrid fitness for binding NBS DNA
YPQY | ≤ 0.2
RYWA | ≤ 0.2
QHDF | ≤ 0.2
SGQL | ≤ 0.2
QPAT | ≤ 0.2
SNTA | ≤ 0.2
PQKY | ≤ 0.2
TKAC | ≤ 0.2
AGGR | ≤ 0.2
MMEC | ≤ 0.2
RIFY | ≤ 0.2
STAQ | ≤ 0.2
HGCS | ≤ 0.2
IYVT | ≤ 0.2
SYGG | ≤ 0.2
LKYI | ≤ 0.2
PTMA | ≤ 0.2
EHAL | ≤ 0.2
SQCK | ≤ 0.2
AYAS | ≤ 0.2
RALI | ≤ 0.2
DPDN | ≤ 0.2
IARY | ≤ 0.2
PSEG | ≤ 0.2
QPYY | ≤ 0.2

Variant | one-hybrid fitness for binding NBS DNA
IDFR | ≤ 0.2
AYCK | ≤ 0.2
QWAR | 0.222
FSPI | ≤ 0.2
GTAS | ≤ 0.2
QEVS | ≤ 0.2
IFRK | ≤ 0.2
HGPT | ≤ 0.2
TIKS | ≤ 0.2
WTAR | ≤ 0.2
SDYT | ≤ 0.2
SRVM | ≤ 0.2
YLPR | ≤ 0.2
ERVN | ≤ 0.2
QADQ | ≤ 0.2
AGLT | ≤ 0.2
LVYM | ≤ 0.2
IRRM | ≤ 0.2
NDTT | ≤ 0.2
PRPM | ≤ 0.2
SSCV | ≤ 0.2
TMGD | ≤ 0.2
QQGC | ≤ 0.2
IPDA | ≤ 0.2
SQTC | ≤ 0.2

Variant | one-hybrid fitness for binding NBS DNA
YYCL | ≤ 0.2
DRYP | ≤ 0.2
YSHL | ≤ 0.2
VGIG | ≤ 0.2
YRYF | ≤ 0.2
VSLS | ≤ 0.2
VNPD | ≤ 0.2
TRWF | ≤ 0.2
LLYP | ≤ 0.2
QYWS | 0.204
EQLG | ≤ 0.2
KRKN | 0.272
WVDV | ≤ 0.2
QFHS | 0.208
TNNC | ≤ 0.2
DPCG | ≤ 0.2
HATF | ≤ 0.2
VRYW | ≤ 0.2
WKLY | ≤ 0.2
HIIV | ≤ 0.2
LYFQ | ≤ 0.2
VWLK | ≤ 0.2
LMSR | ≤ 0.2
PTCP | ≤ 0.2
HFVS | ≤ 0.2

Variant | one-hybrid fitness for binding NBS DNA
GAYG | ≤ 0.2
PVKC | ≤ 0.2
YPPQ | ≤ 0.2
TVVL | ≤ 0.2
RNAL | ≤ 0.2
HYET | ≤ 0.2
LPCS | ≤ 0.2
RKTS | 0.583
KRDF | ≤ 0.2
QIVV | ≤ 0.2
RSCM | ≤ 0.2
YLNS | ≤ 0.2
ERTI | ≤ 0.2
DHNS | ≤ 0.2
VYPT | ≤ 0.2
HMHT | ≤ 0.2
RKSL | ≤ 0.2
QRST | 0.772
YGER | ≤ 0.2
CGQV | ≤ 0.2
MQCR | ≤ 0.2
FRNR | ≤ 0.2
YPHC | ≤ 0.2
TNCL | ≤ 0.2
QRCI | 0.286

Variant | one-hybrid fitness for binding NBS DNA
WQLR | ≤ 0.2
PHIR | ≤ 0.2
ARDV | ≤ 0.2
CREV | ≤ 0.2
PFFG | ≤ 0.2
FMPS | ≤ 0.2
QYYR | 0.466
HYGG | ≤ 0.2
WLHL | ≤ 0.2
ASLH | ≤ 0.2
YCKG | ≤ 0.2
QVCY | ≤ 0.2
FGKG | ≤ 0.2
KYRT | 0.345
MQHS | ≤ 0.2
AYIR | ≤ 0.2
KPQR | ≤ 0.2
EQIW | ≤ 0.2
DLGR | ≤ 0.2
RLLT | 0.337
NELD | ≤ 0.2
GVKS | ≤ 0.2
ISFC | ≤ 0.2
FMTS | ≤ 0.2
TIRC | ≤ 0.2

Variant | one-hybrid fitness for binding NBS DNA
GSEV | ≤ 0.2
DSKT | ≤ 0.2
IERG | ≤ 0.2
PHRY | ≤ 0.2
IEPP | ≤ 0.2
EYKR | ≤ 0.2
VQKC | ≤ 0.2
DKDC | ≤ 0.2
DHPE | ≤ 0.2
TPRT | ≤ 0.2
QRIM | 0.214
ISRC | ≤ 0.2
GMVD | ≤ 0.2
SSQG | ≤ 0.2
YPNM | ≤ 0.2
SFQL | ≤ 0.2
VMNW | ≤ 0.2
PVHN | ≤ 0.2
RWGS | ≤ 0.2
GPKF | ≤ 0.2
